According to PubChem BioAssay AID686978 (National Center for Advancing Translational Sciences (NCATS), 2013):
About 64,000 (15%) of roughly 420,000 compounds were called active. The inconclusive results got no clear call from the source; some entries with a clear call stand among them for comparison. Calls come from the whole dose curve; as a rule, active = well fitted inhibition curve with a large enough effect; inconclusive = small, poorly fitted or top-dose-only effect; inactive = flat fitted curve, though single readings scatter. Potencies of inconclusive entries are left out as doubtful fits.

Assay: qHTS for Inhibitors of human tyrosyl-DNA phosphodiesterase 1 (TDP1): qHTS in cells in absence of CPT; note: nearly all actives have a fitted effect of over 55% in size
Conditions: DT40 Tdp1-/- hTDP1 cells, no CPT, ATP luminescence, 48 h; activity change, negative = growth inhibition: at 46.2 µM (top of the series) unless noted
Text: Human tyrosyl-DNA phosphodiesterase 1 (TDP1) is a novel repair gene, and we propose to use it as a new target for anticancer drug development. TDP1 is not an essential protein, but under treatment with topoisomerase I poison (camptothecin: CPT), TDP1 works as a critical factor for cell survival. To directly identify novel TDP1 inhibitors active in a cellular environment, we have knocked-out the Tdp1 gene in chicken DT40 cells (Tdp1-/-) and generated a complemented counterpart cells that contains a stable transfection of the human TDP1 gene (Tdp1-/-;hTDP1 cells). For the primary screen, Tdp1-/-;hTDP1 cells will be exposed to small molecules in the presence or absence of CPT, and their growth kinetics will be evaluated after 48 hours by measuring ATP activity. […] The hit compounds will then be evaluated in the presence or absence of CPT using Tdp1-/- cells. […] In tertiary assays, biochemical gel-based assays will be used to assess whether the hit compounds specifically target TDP1.
To this end, we have screened this cell line against the MLSMR in two primary screens. In one screen we add CPT and in the other we screen in the absence of CPT; this AID represents the screen where CPT was absent.
NIH Chemical Genomics Center [NCGC]
NIH Molecular Libraries Probe Centers Network [MLPCN]
Assay Submitter (PI): Yves Pommier, NCI
DT40-hTDP1 cells without 20 nM Camptothecin (add 20 microL of DMSO in 1 L of cell culture medium) were dispensed at 400 cells/5microL/well in tissue culture treated 1536-well white wall/solid bottom assay plates (Greiner Bio-One North America, NC, U.S.A.) using a Multidrop Combi 8 channel dispenser (Thermo Fisher, Waltham, MA, USA). 23 nL compounds and controls were transferred using the pin tool (Kalypsys, San Diego, CA, USA) to the assay plates. The assay plates were then incubated at 37 masculineC for a minimum 48 hr. Three microL of Cell Titer Glo solution was added to the plates and incubated at RT in dark for 30 min. Luminescence was read using ViewLux (Perkin Elmer) with 1 sec exposure slow speed, high gain and 2x binning.
% is set by controls: 0 for no effect and ±100 for the full control effect; potency is the fitted concentration of half-maximal effect; tags give direction and shape of the fitted curve.

SMILES | Potency | activity change, negative = growth inhibition
CC(C)(C)c1cc(-c2nc(N)nc(N)n2)c(O)c(C(C)(C)C)c1 | inconclusive [inhibitor, single point] | 
CCn1c(CNc2ccc(F)cc2)nnc1SCC(=O)Nc1ccc(OC)cc1 | inactive | 
CCn1c([N+](=O)[O-])nc2c1c(=O)[nH]c(=O)n2C | active: 1.84 µM | 
N#CC1=C(N)NC(SCc2ccccc2)=C(C#N)C12CCCC2 | active: 18.4 µM | 
CC(=O)c1ccc(NS(=O)(=O)c2ccc(-n3cccn3)cc2)cc1 | inconclusive [inhibitor, single point] | 
CCOC(=O)C1(CCOc2ccccc2)CCN(Cc2ccccc2O)CC1 | inconclusive [inhibitor, single point] | 
CC1CC1C(=O)Nc1nc2ccc(Cl)cc2s1 (stereo not given) | inconclusive [inhibitor, single point] | 
CCC(=O)c1cn(/C(=C\C(=O)OC(C)(C)C)CCC(OC)OC)cc1CC | inconclusive [inhibitor, single point] | 
COC(=O)C1=CN(CC2CCCO2)C=C(C(=O)OC)C1c1ccsc1 (stereo not given) | inactive | 
CCn1c2ccccc2c2nnc(SCC(=O)NC(CC(C)C)C(=O)OC)nc21 (stereo not given) | inconclusive [inhibitor, single point] | 
O=C(Nc1cccc(F)c1)N1CC[C@@]2(CCCNC2)C1 | inactive | 
COc1ccc(C(=O)Oc2c(Sc3ccc(C)cc3)c(C)nn2C(C)(C)C)cc1OC | active: 20.6 µM | 
O=C(c1ccc2c(c1)N(Cc1ccc(Cl)cc1)C(=O)c1ccccc1S2=O)N1CCCCC1 (stereo not given) | inconclusive [inhibitor, single point] | 
CCOc1ccc(CNC(=O)c2cc(-c3ccc(Cl)s3)nc3ccccc23)cc1 | inconclusive [inhibitor, single point] | 
O=C(CCc1ccccc1)NCc1cccnc1 | inactive | 
CCOc1ccc(NC(=O)c2ccc(Cn3nc(C)cc3C)o2)cc1 | inconclusive [inhibitor, single point] | 
Cc1ccc(NC(=O)Cn2cc(C(=O)C3CCCCC3)c3ccccc32)cc1 | inconclusive [inhibitor, single point] | 
CCOc1ccc(-c2cc(CCCC(=O)NCCc3cc(OC)c(OC)c(OC)c3)no2)cc1 | inconclusive [inhibitor, single point] | 
CCOC(=O)C1CCN(C(c2ccc(C)cc2)c2c(O)cc(C)n(CCOC)c2=O)CC1 (stereo not given) | inactive | 
CCO/C([O-])=N/c1c[n+](N2CCOCC2)no1 | inactive | 
COc1cc(C(=O)NC(=S)Nc2ccc([N+](=O)[O-])cc2)cc(OC)c1OC | inactive | 
CCOc1cc(OCC)cc(C(=O)N2CCC[C@H]2C(=O)N2CCC[C@H]2C(=O)NCc2ccncc2)c1 | inactive | 
CCOc1ccc(/C=N/NC(=O)Cn2ccnc2C)cc1 | inactive | 
Cc1ccc(C)c(CN2C(=O)CSc3ccc(C(=O)N4CCCC4)cc32)c1 | inconclusive [inhibitor, single point] | 

SMILES | Potency | activity change, negative = growth inhibition
CCNc1c(NS(=O)(=O)c2ccc(OC)cc2)c(=O)oc2ccccc12 | inconclusive [inhibitor, single point] | 
CC(=O)/C=C/c1ccc2ccccc2n1 | active: 2.59 µM | 
Nc1ccc(O)c([N+](=O)[O-])c1 | inactive | 
CC1(C(=O)NS(=O)(=O)c2ccc(Cl)cc2)CCN1C(=O)COc1ccc(Cl)cc1 (stereo not given) | inactive | 
Cc1c(CC(Cl)(Cl)Cl)c2c(n1O)CC(C)(C)CC2=O | inconclusive [inhibitor, single point] | 
Oc1ccccc1C1=Nc2ncnn2C(c2ccccc2)C1 (stereo not given) | inconclusive [inhibitor, single point] | 
CCOc1c2ccc(C(=O)NCc3ccccc3OC)cc2nn1CC | inconclusive [inhibitor, partial curve, poor fit] | 
COc1ccc(OC)c(S(=O)(=O)N/N=C\c2cn(CC(N)=O)c3ccccc23)c1 | inconclusive [inhibitor, single point] | 
CCOc1ccc(NC(=O)Cn2c(=O)n(CCCS(=O)(=O)C3CCCCC3)c(=O)c3ccccc32)cc1 | inconclusive [inhibitor, single point] | 
COc1ccc2c(c1)c(/C=N/Nc1nc3ccccc3[nH]1)c(C)n2C | inconclusive [inhibitor, partial curve, poor fit] | 
COc1ccc(CCNC(=O)CCCn2nc(C)c3sc4ccccc4c3c2=O)c(OC)c1 | inconclusive [inhibitor, single point] | 
N#Cc1c(F)cccc1N1CCN(Cc2ccc3c(c2)OCO3)CC1 | inconclusive [inhibitor, single point] | 
Cc1ccc2c(c1)c1c(n2CC(O)Cn2nc(C)c(Br)c2C)C(=O)CCC1 (stereo not given) | active: 20.6 µM | 
N#Cc1ccc(CN2CCCC3(CCN(S(=O)(=O)c4ccccc4)CC3)C2)cc1 | inconclusive [inhibitor, single point] | 
CS(=O)(=O)N1CCC(C(=O)Nc2ccc(Oc3ccccc3)cc2)CC1 | inconclusive [inhibitor, single point] | 
Cc1ccc(NC(=O)C2CCC(CNS(=O)(=O)c3cccc4nsnc34)CC2)c(Cl)c1 (stereo not given) | inconclusive [inhibitor, full curve] | 
COc1ccc2c(c1)CCc1cnc(-n3ncc(C(=O)N4CCN(CCO)CC4)c3C3CC3)nc1-2 | inactive | 
O=C1c2cccc3cccc(c23)C(=O)N1Nc1ccccc1 | inconclusive [inhibitor, partial curve] | 
COc1ccc(NC(=O)COC(=O)c2c3c(nc4ccccc24)CCCC3)cc1 | inconclusive [inhibitor, single point] | 
Cc1ccc(-n2ncc3c(N4CCC(Cc5ccccc5)CC4)ncnc32)cc1C |  | inconclusive: -30.9% [inhibitor]
Cc1cccc(N(C)C(=O)Cc2c(C(=O)O)[nH]c3ccccc23)c1 | inconclusive [inhibitor, partial curve] | 
COc1ccc(N2CCN(C(=O)C3CCN(S(=O)(=O)c4cn(C)cn4)CC3)CC2)cc1 | inactive | 
CN(C)c1ccc(CC(=O)N2CCCCC2c2cc(C(=O)Nc3ccccc3Cl)no2)cc1 (stereo not given) | inconclusive [inhibitor, partial curve, poor fit] | 
C=CCNC(=O)c1ccccc1NC(=O)c1ccc(Cl)c(S(=O)(=O)Nc2cccc(C)c2C)c1 | active: 16.4 µM | 

SMILES | Potency | activity change, negative = growth inhibition
CCC1COCCS(=O)(=O)N1Cc1ccc(C)cc1 (stereo not given) | inactive | 
Cc1ccc(N(Cc2ccco2)C(=O)c2cccc(S(=O)(=O)N(C)C)c2)cc1 | inconclusive [inhibitor, single point] | 
CC(=O)c1ccc(NC(=S)NCc2ccc(Cl)cc2Cl)cc1 | active: 23.1 µM | 
CNC(=O)c1[nH]cnc1C(=O)Nc1ccc(Cl)cc1 | inconclusive [inhibitor, single point] | 
Cc1ccc(N(C)C(=O)N2CCN(S(=O)(=O)c3c(C)cc(C)cc3C)CC2)cc1 | inactive | 
Cc1cc(C)cc(C(O)c2ncc(-c3ccc(Cl)cc3)[nH]2)c1 (stereo not given) | inconclusive [inhibitor, single point] | 
COC(=O)[C@H](CCSC)NC(=O)Cn1cnc(C(=O)Nc2ccc(C)c(C)c2)n1 | inactive | 
CCCc1nc2oc3cc(OC)ccc3c(=O)c2c(=O)n1Cc1ccco1 | inconclusive [inhibitor, full curve, poor fit] | 
CCC(CC)C(=O)Nc1c2c(nn1-c1ccc(OC)cc1)CS(=O)C2 (stereo not given) | inactive | 
CCCCCC(=O)Nc1cccc(C2=NOC3(C2)C[C@@H](C(N)=O)N(C(=O)c2cc([N+](=O)[O-])cc([N+](=O)[O-])c2C)C3)c1 (stereo not given in full) | inconclusive [inhibitor, single point] | 
CCOC(=O)C1CCCN(C(=O)c2ccc3ccccc3c2)CC1 (stereo not given) | inconclusive [inhibitor, single point] | 
O=C(COC(=O)c1ccco1)NC1CCCCC1 | inactive | 
CCOC(=O)c1ccc(NC(=O)CSc2nnc(-c3ccncc3)n2C)cc1 | inactive | 
C=C(C)CN(CC)C(=O)CCc1nnc(CCCc2ccccc2)o1 | inconclusive [inhibitor, single point] | 
Cc1ccc(C2=NN=C(NC(=O)CSc3nncn3C)SC2)cc1 | inconclusive [inhibitor, partial curve] | 
CCc1cc(C(=O)Nc2ccccc2N2CCOCC2)sc1C | inconclusive [inhibitor, single point] | 
Cc1cc2nccc(-c3ccc(Cl)cc3Cl)n2n1 | inconclusive [inhibitor, single point] | 
CCOc1ccccc1C(=O)OCC(=O)Nc1ccc(N2CCCCC2)cc1 | inconclusive [inhibitor, partial curve] | 
O=C(c1cc(COc2ccc(F)c(F)c2)on1)N1CCN(C2CCCCC2)C(=O)C1 | active: 23.1 µM | 
S=C(NCCc1ccccc1)N1CCc2ccccc2C1 | inconclusive [inhibitor, single point] | 
COC(=O)c1ccc(C(=O)NC2CCCN(Cc3ccc(Cl)cc3)C2)nc1 (stereo not given) | inconclusive [inhibitor, single point] | 
Cc1cc2cc(CNC(=S)Nc3ccc(OC(F)(F)F)cc3)ccc2n1C | inconclusive [inhibitor, partial curve] | 
